{"source": "patent US20170258835A1", "about": "(University of Pennsylvania, published 2017)", "binders": {"B1": {"name": "4A11.4D5 bi-specific antibody (bispecific antibody)", "chain": "DIQMTQSPSSLSASVGDRVSITCRASQGISSWLAWYQQKPEKAPKSLIYAASNLRSGVPSRFSGSGSGTDFTLTISSLQPEDFATYYCQQYYSYPRTFGQGTKVEIKGGGGSGGGGSGGGGSQLQLQESGPGLVKPSETLSLTCTVSGGSLSRSSFFWGWIRQPPGKGLEWIGSIYYSGSTYYNPSLKSRVTISVDTSKNQFSLKLSSVTAADTAVYYCVRDYDILTGDEDYWGQGTLVTVSSGGGGS[skipping about 100 residues]RTGSTSGSGKPGSGEGS[skipping about 120 residues]", "notes": "co-electroporated with PD1-Z"}}, "target": "T1, PD1-Z CLEAR", "T1 construct": "PD1 based chimeric receptor on RNA electroporated T cells; also called PD1 CLEAR (zeta alone)", "T1 sequence (chain, as listed by the source limits assumed)": "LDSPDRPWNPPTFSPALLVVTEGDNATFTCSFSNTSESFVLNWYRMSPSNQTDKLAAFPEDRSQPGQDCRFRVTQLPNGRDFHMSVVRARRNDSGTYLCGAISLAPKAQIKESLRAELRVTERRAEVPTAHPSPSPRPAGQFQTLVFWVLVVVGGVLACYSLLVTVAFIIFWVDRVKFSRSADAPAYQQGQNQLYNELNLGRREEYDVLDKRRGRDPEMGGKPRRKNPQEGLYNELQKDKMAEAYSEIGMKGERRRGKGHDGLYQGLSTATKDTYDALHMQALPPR", "experiment": "flow cytometry, T cells 18 h after co-electroporation of PD1-Z RNA and bi-specific antibody RNA, stained with anti-mouse IgG Fab PE and anti-PD1 APC; same quadrant in the controls: EP16 PD1-Z alone 2.42, EP20 No RNA 0.086", "data": [{"binder": "B1", "values": [{"measurement": "percent of cells PD1+ mIgG Fab+ (upper right quadrant)", "value": 29.2}]}]}
